# Data: the supplement of paper PMC8728848
# Some of the results follow.
# Columns and labels:
# Test in all cases: glycan array binding signal (z-score within array); higher = stronger binding
# Conditions in all cases: glycan notation: IUPAC condensed, linker removed
# [1] = target: Gal(b1-4)GlcNAc(b1-2)[Gal(b1-4)GlcNAc(b1-4)]Man(a1-3)[GlcNAc(b1-4)][Gal(b1-4)GlcNAc(b1-2)Man(a1-6)]Man(b1-4)GlcNAc(b1-4)GlcNAc
# How it was run: (§1)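 Negative Z-scores can be read as non-binding. The Z-score is calculated within each array and then averaged across arrays of one protein sequence at different concentrations or buffers and across linkers. Arrays, 3228 in all, were curated from the Consortium for Functional Glycomics database and kept only where the protein sequence was available.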
# [2] = target: Gal(b1-4)GlcNAc(b1-2)[Gal(b1-4)GlcNAc(b1-4)]Man(a1-3)[GlcNAc(b1-4)][Gal(b1-4)GlcNAc(b1-2)[Gal(b1-4)GlcNAc(b1-6)]Man(a1-6)]Man(b1-4)GlcNAc(b1-4)GlcNAc
# How it was run: as §1
# [3] = target: Gal(b1-4)GlcNAc(b1-2)[Gal(b1-4)GlcNAc(b1-4)]Man(a1-3)[GlcNAc(b1-4)][Gal(b1-4)GlcNAc(b1-2)[Gal(b1-4)GlcNAc(b1-6)]Man(a1-6)]Man(b1-4)GlcNAc(b1-4)[Fuc(a1-6)]GlcNAc
# How it was run: as §1
# [4] = target: Gal(b1-4)GlcNAc(b1-2)[Gal(b1-4)GlcNAc(b1-6)]Man(a1-6)[Gal(b1-4)GlcNAc(b1-2)Man(a1-3)]Man(b1-4)GlcNAc(b1-4)GlcNAc
# How it was run: as §1
# [5] = target: Gal(b1-4)GlcNAc(b1-2)[Gal(b1-4)GlcNAc(b1-6)]Man(a1-6)[Gal(b1-4)GlcNAc(b1-2)Man(a1-3)]Man(b1-4)GlcNAc(b1-4)[Fuc(a1-6)]GlcNAc
# How it was run: as §1
# [6] = target: Gal(b1-4)GlcNAc(b1-2)[Gal(b1-4)GlcNAc(b1-6)]Man(a1-6)[GlcNAc(b1-4)][Gal(b1-4)GlcNAc(b1-2)Man(a1-3)]Man(b1-4)GlcNAc(b1-4)GlcNAc
# How it was run: as §1
# [7] = target: Gal(b1-4)GlcNAc(b1-3)Gal(b1-3)GlcNAc
# How it was run: as §1
# [8] = target: Gal(b1-4)GlcNAc(b1-3)Gal(b1-4)Glc
# How it was run: as §1
# [9] = target: Gal(b1-4)GlcNAc(b1-3)Gal(b1-4)GlcNAc
# How it was run: as §1
# [10] = target: Gal(b1-4)GlcNAc(b1-3)Gal(b1-4)GlcNAc(b1-3)Gal(b1-4)GlcNAc
# How it was run: as §1
# [11] = target: Gal(b1-4)GlcNAc(b1-3)Gal(b1-4)[Fuc(a1-3)GlcNAc(b1-6)]Gal(b1-4)Glc
# How it was run: as §1
# [12] = target: Gal(b1-4)GlcNAc(b1-3)Gal(b1-4)[Fuc(a1-3)]GlcNAc(b1-3)Gal(b1-4)[Fuc(a1-3)]GlcNAc
# How it was run: as §1
# [13] = target: Gal(b1-4)GlcNAc(b1-3)GalNAc
# How it was run: as §1
# [14] = target: Gal(b1-4)GlcNAc(b1-3)[Gal(b1-4)GlcNAc(b1-6)]Gal(b1-4)GlcNAc
# How it was run: as §1
# [15] = target: Gal(b1-4)GlcNAc(b1-3)[Gal(b1-4)GlcNAc(b1-6)]GalNAc
# How it was run: as §1
# [16] = target: Gal(b1-4)GlcNAc(b1-3)[GlcNAc(b1-6)]Gal(b1-4)GlcNAc
# How it was run: as §1
# [17] = target: Gal(b1-4)GlcNAc(b1-6)Gal(b1-4)GlcNAc
# How it was run: as §1
# [18] = target: Gal(b1-4)GlcNAc(b1-6)GalNAc
# How it was run: as §1
# [19] = target: Gal(b1-4)GlcNAc(b1-6)[Gal(b1-3)]GalNAc
# How it was run: as §1
# Gal(b1-4)GlcNAc6P = target: Gal(b1-4)GlcNAc6P
# How it was run: as §1
# Gal(b1-6)Gal = target: Gal(b1-6)Gal
# How it was run: as §1
# Gal3S(b1-3)GalNAc = target: Gal3S(b1-3)GalNAc
# How it was run: as §1
# Gal3S(b1-3)GlcNAc = target: Gal3S(b1-3)GlcNAc
# How it was run: as §1
# [20] = target: Gal3S(b1-3)[Fuc(a1-4)]GlcNAc
# How it was run: as §1
# Gal3S(b1-4)Glc = target: Gal3S(b1-4)Glc
# How it was run: as §1
# Gal3S(b1-4)Glc6S = target: Gal3S(b1-4)Glc6S
# How it was run: as §1
# Gal3S(b1-4)GlcNAc = target: Gal3S(b1-4)GlcNAc
# How it was run: as §1
# Gal3S(b1-4)GlcNAc6S = target: Gal3S(b1-4)GlcNAc6S
# How it was run: as §1
# [21] = target: Gal3S(b1-4)[Fuc(a1-3)]Glc
# How it was run: as §1
# [22] = target: Gal3S(b1-4)[Fuc(a1-3)]Glc6S
# How it was run: as §1
# Gal3S4S(b1-4)GlcNAc = target: Gal3S4S(b1-4)GlcNAc
# How it was run: as §1
# Gal3S6S(b1-4)GlcNAc = target: Gal3S6S(b1-4)GlcNAc
# How it was run: as §1
# Gal3S6S(b1-4)GlcNAc6S = target: Gal3S6S(b1-4)GlcNAc6S
# How it was run: as §1
# Gal4S(b1-4)GlcNAc = target: Gal4S(b1-4)GlcNAc
# How it was run: as §1
# Gal4S6S(b1-4)GlcNAc = target: Gal4S6S(b1-4)GlcNAc
# How it was run: as §1
# Gal6P(b1-4)GlcNAc = target: Gal6P(b1-4)GlcNAc
# How it was run: as §1
# Gal6S(b1-3)GlcNAc = target: Gal6S(b1-3)GlcNAc
# How it was run: as §1
# Gal6S(b1-3)GlcNAc6S = target: Gal6S(b1-3)GlcNAc6S
# How it was run: as §1
# Gal6S(b1-4)Glc = target: Gal6S(b1-4)Glc
# How it was run: as §1
# Gal6S(b1-4)Glc6S = target: Gal6S(b1-4)Glc6S
# How it was run: as §1
# Gal6S(b1-4)GlcNAc = target: Gal6S(b1-4)GlcNAc
# How it was run: as §1
# Gal6S(b1-4)GlcNAc6S = target: Gal6S(b1-4)GlcNAc6S
# How it was run: as §1
# GalNAc(a1-3)Gal = target: GalNAc(a1-3)Gal
# How it was run: as §1
# GalNAc(a1-3)GalNAc = target: GalNAc(a1-3)GalNAc
# How it was run: as §1
# [23] = target: GalNAc(a1-3)GalNAc(b1-3)Gal(a1-4)Gal(b1-4)Glc
# How it was run: as §1
binder,measurement,setting,value
Morniga (Morus nigra) (protein) MAGTSTNTQTTGTSQTVEVGLWGGPGGNAWDDGSYTGIREINLSHGDAIGAFSVIYDLNGQPFTGPTHPGNEPSFKTVKITLDFPNEFLVSVSGYTGVLPRLATGKDVIRSLTFKTNKKTYGPYGKEEGTPFSLPIENGLIVGFKGRSGFVVDAIGVHLS,glycan array binding signal (z-score),[1],-0.333
same,glycan array binding signal (z-score),[2],-0.337
same,glycan array binding signal (z-score),[3],-0.324
same,glycan array binding signal (z-score),[4],2.5
same,glycan array binding signal (z-score),[5],1.6
same,glycan array binding signal (z-score),[6],1.45
same,glycan array binding signal (z-score),[7],-0.331
same,glycan array binding signal (z-score),[8],-0.339
same,glycan array binding signal (z-score),[9],-0.339
same,glycan array binding signal (z-score),[10],-0.336
same,glycan array binding signal (z-score),[11],-0.329
same,glycan array binding signal (z-score),[12],-0.324
same,glycan array binding signal (z-score),[13],-0.338
same,glycan array binding signal (z-score),[14],-0.339
same,glycan array binding signal (z-score),[15],-0.334
same,glycan array binding signal (z-score),[16],-0.331
same,glycan array binding signal (z-score),[17],-0.33
same,glycan array binding signal (z-score),[18],-0.331
same,glycan array binding signal (z-score),[19],-0.339
same,glycan array binding signal (z-score),Gal(b1-4)GlcNAc6P,-0.325
same,glycan array binding signal (z-score),Gal(b1-6)Gal,-0.326
same,glycan array binding signal (z-score),Gal3S(b1-3)GalNAc,-0.339
same,glycan array binding signal (z-score),Gal3S(b1-3)GlcNAc,-0.342
same,glycan array binding signal (z-score),[20],-0.33
same,glycan array binding signal (z-score),Gal3S(b1-4)Glc,-0.332
same,glycan array binding signal (z-score),Gal3S(b1-4)Glc6S,-0.342
same,glycan array binding signal (z-score),Gal3S(b1-4)GlcNAc,-0.335
same,glycan array binding signal (z-score),Gal3S(b1-4)GlcNAc6S,-0.335
same,glycan array binding signal (z-score),[21],-0.324
same,glycan array binding signal (z-score),[22],-0.294
same,glycan array binding signal (z-score),Gal3S4S(b1-4)GlcNAc,-0.337
same,glycan array binding signal (z-score),Gal3S6S(b1-4)GlcNAc,-0.338
same,glycan array binding signal (z-score),Gal3S6S(b1-4)GlcNAc6S,-0.316
same,glycan array binding signal (z-score),Gal4S(b1-4)GlcNAc,-0.344
same,glycan array binding signal (z-score),Gal4S6S(b1-4)GlcNAc,-0.324
same,glycan array binding signal (z-score),Gal6P(b1-4)GlcNAc,-0.331
same,glycan array binding signal (z-score),Gal6S(b1-3)GlcNAc,-0.338
same,glycan array binding signal (z-score),Gal6S(b1-3)GlcNAc6S,-0.334
same,glycan array binding signal (z-score),Gal6S(b1-4)Glc,-0.338
same,glycan array binding signal (z-score),Gal6S(b1-4)Glc6S,-0.342
same,glycan array binding signal (z-score),Gal6S(b1-4)GlcNAc,-0.335
same,glycan array binding signal (z-score),Gal6S(b1-4)GlcNAc6S,-0.337
same,glycan array binding signal (z-score),GalNAc(a1-3)Gal,-0.309
same,glycan array binding signal (z-score),GalNAc(a1-3)GalNAc,-0.334
same,glycan array binding signal (z-score),[23],-0.333
